Assay results from publication PMC12820563.
The list shows a part of the results. The list includes weakly bound sequences.

Target: T1, MBP-FoxP3dN (UniProt Q99JB6)
T1 sequence: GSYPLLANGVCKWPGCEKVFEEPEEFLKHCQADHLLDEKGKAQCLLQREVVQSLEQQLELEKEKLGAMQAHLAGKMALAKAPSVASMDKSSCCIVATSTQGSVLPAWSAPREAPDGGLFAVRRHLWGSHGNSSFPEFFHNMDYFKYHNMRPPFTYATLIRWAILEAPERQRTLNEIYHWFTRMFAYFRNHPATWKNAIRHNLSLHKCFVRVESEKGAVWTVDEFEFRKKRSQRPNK
Experiment: PD-seq (MBP pull-down with sequencing)
Conditions: 20 mM Tris-HCl pH 7.5, 100 mM NaCl, 1.5 mM MgCl2, 0.4 uM protein, 0.1 uM dsDNA library, 30 min, room temperature, amylose pull-down; high values mean tight binding; double strand, one strand shown

Sequence	binding signal (RPM ratio (pull-down/input))
GATGATTGTTCTCCCAGCTGATGAATTTCCCAAATCGAGTAAACAAATTTTCCTAATCTTTCTGTTCAAGCGCCATCTAC	0.2
GATGATTGTTCTCCCAGCTGATGAATTAGGAGCCTCGAGTAAACAAATTTTCCTAATCTTTCTGTTCAAGCGCCATCTAC	0.47
GATGATTGTTCTCCCAGCTGATGAATTAGCCTTCTCGAGTAAACAAATTTTCCTAATCTTTCTGTTCAAGCGCCATCTAC	1.15
GATGATTGTTCTCCCAGCTGATGAATTCGGTTATTCGAGTAAACAAATTTTCCTAATCTTTCTGTTCAAGCGCCATCTAC	2.41
GATGATTGTTCTCCCAGCTGATGAATTTACGGTTTCGAGTAAACAAATTTTCCTAATCTTTCTGTTCAAGCGCCATCTAC	0.786
GATGATTGTTCTCCCAGCTGATGAATTGGCCCTATCGAGTAAACAAATTTTCCTAATCTTTCTGTTCAAGCGCCATCTAC	0.332
GATGATTGTTCTCCCAGCTGATGAATTTAATAGTTCGAGTAAACAAATTTTCCTAATCTTTCTGTTCAAGCGCCATCTAC	3.21
GATGATTGTTCTCCCAGCTGATGAATTATCTATTTCGAGTAAACAAATTTTCCTAATCTTTCTGTTCAAGCGCCATCTAC	0.352
GATGATTGTTCTCCCAGCTGATGAATTGTGTCCCTCGAGTAAACAAATTTTCCTAATCTTTCTGTTCAAGCGCCATCTAC	2.1
GATGATTGTTCTCCCAGCTGATGAATTCGTTACCTCGAGTAAACAAATTTTCCTAATCTTTCTGTTCAAGCGCCATCTAC	0.862
GATGATTGTTCTCCCAGCTGATGAATTCCCCCGTTCGAGTAAACAAATTTTCCTAATCTTTCTGTTCAAGCGCCATCTAC	0.206
GATGATTGTTCTCCCAGCTGATGAATTAGAGACGTCGAGTAAACAAATTTTCCTAATCTTTCTGTTCAAGCGCCATCTAC	0.265
GATGATTGTTCTCCCAGCTGATGAATTATCGTAGTCGAGTAAACAAATTTTCCTAATCTTTCTGTTCAAGCGCCATCTAC	0.377
GATGATTGTTCTCCCAGCTGATGAATTTCAGACATCGAGTAAACAAATTTTCCTAATCTTTCTGTTCAAGCGCCATCTAC	0.31
GATGATTGTTCTCCCAGCTGATGAATTCCCCCGCTCGAGTAAACAAATTTTCCTAATCTTTCTGTTCAAGCGCCATCTAC	0.214
GATGATTGTTCTCCCAGCTGATGAATTCTGACACTCGAGTAAACAAATTTTCCTAATCTTTCTGTTCAAGCGCCATCTAC	2.3
GATGATTGTTCTCCCAGCTGATGAATTAAAGACCTCGAGTAAACAAATTTTCCTAATCTTTCTGTTCAAGCGCCATCTAC	0.237
GATGATTGTTCTCCCAGCTGATGAATTGTAATGCTCGAGTAAACAAATTTTCCTAATCTTTCTGTTCAAGCGCCATCTAC	1.07
GATGATTGTTCTCCCAGCTGATGAATTCACGGCCTCGAGTAAACAAATTTTCCTAATCTTTCTGTTCAAGCGCCATCTAC	0.36
GATGATTGTTCTCCCAGCTGATGAATTTGTGTGTTCGAGTAAACAAATTTTCCTAATCTTTCTGTTCAAGCGCCATCTAC	5.99
GATGATTGTTCTCCCAGCTGATGAATTCTTACGATCGAGTAAACAAATTTTCCTAATCTTTCTGTTCAAGCGCCATCTAC	0.243

Sequence	binding signal (RPM ratio (pull-down/input))
GATGATTGTTCTCCCAGCTGATGAATTGCGTGGTTCGAGTAAACAAATTTTCCTAATCTTTCTGTTCAAGCGCCATCTAC	1.86
GATGATTGTTCTCCCAGCTGATGAATTTTGCAGGTCGAGTAAACAAATTTTCCTAATCTTTCTGTTCAAGCGCCATCTAC	1.54
GATGATTGTTCTCCCAGCTGATGAATTAGGACGTTCGAGTAAACAAATTTTCCTAATCTTTCTGTTCAAGCGCCATCTAC	0.371
GATGATTGTTCTCCCAGCTGATGAATTTATCGAGTCGAGTAAACAAATTTTCCTAATCTTTCTGTTCAAGCGCCATCTAC	0.379
GATGATTGTTCTCCCAGCTGATGAATTGTGCAGATCGAGTAAACAAATTTTCCTAATCTTTCTGTTCAAGCGCCATCTAC	0.741
GATGATTGTTCTCCCAGCTGATGAATTTACACTGTCGAGTAAACAAATTTTCCTAATCTTTCTGTTCAAGCGCCATCTAC	0.576
GATGATTGTTCTCCCAGCTGATGAATTCATCGGTTCGAGTAAACAAATTTTCCTAATCTTTCTGTTCAAGCGCCATCTAC	0.455
GATGATTGTTCTCCCAGCTGATGAATTTGCTGTATCGAGTAAACAAATTTTCCTAATCTTTCTGTTCAAGCGCCATCTAC	4.72
GATGATTGTTCTCCCAGCTGATGAATTTGGCGGCTCGAGTAAACAAATTTTCCTAATCTTTCTGTTCAAGCGCCATCTAC	0.668
GATGATTGTTCTCCCAGCTGATGAATTCCGCCTCTCGAGTAAACAAATTTTCCTAATCTTTCTGTTCAAGCGCCATCTAC	6.3
GATGATTGTTCTCCCAGCTGATGAATTATTCGGTTCGAGTAAACAAATTTTCCTAATCTTTCTGTTCAAGCGCCATCTAC	0.328
GATGATTGTTCTCCCAGCTGATGAATTGTTCATATCGAGTAAACAAATTTTCCTAATCTTTCTGTTCAAGCGCCATCTAC	0.681
GATGATTGTTCTCCCAGCTGATGAATTAACTGGGTCGAGTAAACAAATTTTCCTAATCTTTCTGTTCAAGCGCCATCTAC	0.222
GATGATTGTTCTCCCAGCTGATGAATTAACTCGCTCGAGTAAACAAATTTTCCTAATCTTTCTGTTCAAGCGCCATCTAC	0.264
GATGATTGTTCTCCCAGCTGATGAATTCTGTTAGTCGAGTAAACAAATTTTCCTAATCTTTCTGTTCAAGCGCCATCTAC	5.31
GATGATTGTTCTCCCAGCTGATGAATTACATGCGTCGAGTAAACAAATTTTCCTAATCTTTCTGTTCAAGCGCCATCTAC	1.08
GATGATTGTTCTCCCAGCTGATGAATTAAAGACTTCGAGTAAACAAATTTTCCTAATCTTTCTGTTCAAGCGCCATCTAC	0.372
GATGATTGTTCTCCCAGCTGATGAATTATCGCGGTCGAGTAAACAAATTTTCCTAATCTTTCTGTTCAAGCGCCATCTAC	0.34
GATGATTGTTCTCCCAGCTGATGAATTGCGTAAATCGAGTAAACAAATTTTCCTAATCTTTCTGTTCAAGCGCCATCTAC	0.663
GATGATTGTTCTCCCAGCTGATGAATTAATTATTTCGAGTAAACAAATTTTCCTAATCTTTCTGTTCAAGCGCCATCTAC	2.17
GATGATTGTTCTCCCAGCTGATGAATTACTGTGCTCGAGTAAACAAATTTTCCTAATCTTTCTGTTCAAGCGCCATCTAC	0.454

Sequence	binding signal (RPM ratio (pull-down/input))
GATGATTGTTCTCCCAGCTGATGAATTAGGCCAGTCGAGTAAACAAATTTTCCTAATCTTTCTGTTCAAGCGCCATCTAC	1.21
GATGATTGTTCTCCCAGCTGATGAATTCGGACCCTCGAGTAAACAAATTTTCCTAATCTTTCTGTTCAAGCGCCATCTAC	0.337
GATGATTGTTCTCCCAGCTGATGAATTTTGAGGGTCGAGTAAACAAATTTTCCTAATCTTTCTGTTCAAGCGCCATCTAC	0.383
GATGATTGTTCTCCCAGCTGATGAATTTCGGCGTTCGAGTAAACAAATTTTCCTAATCTTTCTGTTCAAGCGCCATCTAC	1.37
GATGATTGTTCTCCCAGCTGATGAATTCCGAATATCGAGTAAACAAATTTTCCTAATCTTTCTGTTCAAGCGCCATCTAC	0.493
GATGATTGTTCTCCCAGCTGATGAATTGAGTTCCTCGAGTAAACAAATTTTCCTAATCTTTCTGTTCAAGCGCCATCTAC	0.624
GATGATTGTTCTCCCAGCTGATGAATTTGTTGGATCGAGTAAACAAATTTTCCTAATCTTTCTGTTCAAGCGCCATCTAC	5.2
GATGATTGTTCTCCCAGCTGATGAATTTTGCTGCTCGAGTAAACAAATTTTCCTAATCTTTCTGTTCAAGCGCCATCTAC	1.31
GATGATTGTTCTCCCAGCTGATGAATTGGCTTCGTCGAGTAAACAAATTTTCCTAATCTTTCTGTTCAAGCGCCATCTAC	0.498
GATGATTGTTCTCCCAGCTGATGAATTCTGGGGGTCGAGTAAACAAATTTTCCTAATCTTTCTGTTCAAGCGCCATCTAC	0.456
GATGATTGTTCTCCCAGCTGATGAATTATTCGAATCGAGTAAACAAATTTTCCTAATCTTTCTGTTCAAGCGCCATCTAC	0.32
GATGATTGTTCTCCCAGCTGATGAATTCTGTCAATCGAGTAAACAAATTTTCCTAATCTTTCTGTTCAAGCGCCATCTAC	0.668
GATGATTGTTCTCCCAGCTGATGAATTTCTATCATCGAGTAAACAAATTTTCCTAATCTTTCTGTTCAAGCGCCATCTAC	0.435
GATGATTGTTCTCCCAGCTGATGAATTCACTAATTCGAGTAAACAAATTTTCCTAATCTTTCTGTTCAAGCGCCATCTAC	0.292
GATGATTGTTCTCCCAGCTGATGAATTCATTCCCTCGAGTAAACAAATTTTCCTAATCTTTCTGTTCAAGCGCCATCTAC	0.308
GATGATTGTTCTCCCAGCTGATGAATTAAACACCTCGAGTAAACAAATTTTCCTAATCTTTCTGTTCAAGCGCCATCTAC	0.624
GATGATTGTTCTCCCAGCTGATGAATTGCTGAAGTCGAGTAAACAAATTTTCCTAATCTTTCTGTTCAAGCGCCATCTAC	0.352
GATGATTGTTCTCCCAGCTGATGAATTTTTAACGTCGAGTAAACAAATTTTCCTAATCTTTCTGTTCAAGCGCCATCTAC	0.304
GATGATTGTTCTCCCAGCTGATGAATTGATGAATTCGAGTAAACAAATTTTCCTAATCTTTCTGTTCAAGCGCCATCTAC	0.694
GATGATTGTTCTCCCAGCTGATGAATTTCACTATTCGAGTAAACAAATTTTCCTAATCTTTCTGTTCAAGCGCCATCTAC	0.422
GATGATTGTTCTCCCAGCTGATGAATTGATCCGCTCGAGTAAACAAATTTTCCTAATCTTTCTGTTCAAGCGCCATCTAC	0.273
